The list shows a part of the results. Each Rep nickase domain was tested in vitro on the same pool of single strands (3 µM enzyme, 1 h, 37 °C); shown is the middle of each 90-letter strand. Values are log2 of uncut reads against the no-enzyme pool; strong cutting gives strongly negative numbers. There is no active / inactive call. Counts are relative to all reads, so uncut sequences can rise above 0 when many others are cut.
Experiments:
Test in all cases: uncleaved DNA left, log2 of reads against the no-enzyme library (log2 ratio); higher = less cleavage (more negative = more Rep cleavage of the k-mer); sequences stand for … in CTCGTCCG…ACCGGAGA
[1] = tested on: T1, Rep nickase domain of Muscovy duck circovirus
T1 sequence (protein, residues 1-111, tag omitted): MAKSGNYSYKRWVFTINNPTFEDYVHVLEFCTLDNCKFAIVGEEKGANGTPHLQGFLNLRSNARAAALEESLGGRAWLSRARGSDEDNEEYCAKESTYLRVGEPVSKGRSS
Protocol: (§1)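 A pool of 90-nt single-stranded DNAs with seven random bases just before the constant AC of the nick site (name = the seven bases) was cut by 3 µM recombinant His6-SUMO-tagged Rep nickase domain (300 nM DNA, 50 mM HEPES pH 8.0, 50 mM NaCl, 1 mM MnCl2, 1 h, 37 °C, three replicates). Uncut DNA was amplified and sequenced.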

[2] = tested on: T2, Rep nickase domain of banana bunchy top virus
T2 sequence (protein, residues 1-94, tag omitted): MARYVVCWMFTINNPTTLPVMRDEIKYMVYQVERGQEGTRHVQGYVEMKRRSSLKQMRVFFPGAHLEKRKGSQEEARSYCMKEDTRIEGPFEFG
Protocol: as §1

[3] = tested on: T3, Rep nickase domain of cabbage leaf curl virus
T3 sequence (protein, residues 1-116, tag omitted): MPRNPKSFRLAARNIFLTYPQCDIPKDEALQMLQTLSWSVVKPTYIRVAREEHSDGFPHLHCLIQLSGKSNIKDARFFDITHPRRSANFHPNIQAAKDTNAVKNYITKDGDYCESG
Protocol: as §1

[4] = tested on: T4, Rep nickase domain of chickpea chlorotic dwarf virus
T4 sequence (protein, residues 1-124, tag omitted): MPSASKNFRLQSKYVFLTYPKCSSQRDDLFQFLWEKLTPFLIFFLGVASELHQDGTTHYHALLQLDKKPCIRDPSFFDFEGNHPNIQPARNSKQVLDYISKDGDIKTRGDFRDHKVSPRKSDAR
Protocol: as §1

[5] = tested on: T5, Rep nickase domain of faba bean necrotic yellows virus
T5 sequence (protein, residues 1-98, tag omitted): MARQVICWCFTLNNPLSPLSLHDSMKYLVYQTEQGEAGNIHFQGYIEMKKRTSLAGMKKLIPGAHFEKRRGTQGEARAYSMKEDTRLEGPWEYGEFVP
Protocol: as §1

[6] = tested on: T6, Rep nickase domain of maize striate mosaic virus
T6 sequence (protein, residues 1-117, tag omitted): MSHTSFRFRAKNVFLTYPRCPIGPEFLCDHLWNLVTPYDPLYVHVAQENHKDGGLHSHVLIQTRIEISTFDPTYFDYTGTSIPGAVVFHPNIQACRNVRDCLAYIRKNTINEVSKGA
Protocol: as §1

[7] = tested on: T7, Rep nickase domain of porcine circovirus 2
T7 sequence (protein, residues 2-116, tag omitted): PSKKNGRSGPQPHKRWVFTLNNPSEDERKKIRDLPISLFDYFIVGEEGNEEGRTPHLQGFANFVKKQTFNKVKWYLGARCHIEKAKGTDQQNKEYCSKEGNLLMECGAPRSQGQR
Protocol: as §1

[8] = tested on: T8, Rep nickase domain of tomato golden mosaic virus
T8 sequence (protein, residues 1-124, tag omitted): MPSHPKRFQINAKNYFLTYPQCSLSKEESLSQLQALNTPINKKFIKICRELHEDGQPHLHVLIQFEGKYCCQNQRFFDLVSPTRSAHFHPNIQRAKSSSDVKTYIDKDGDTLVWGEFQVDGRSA
Protocol: as §1

[9] = tested on: T9, Rep nickase domain of tomato yellow leaf curl virus
T9 sequence (protein, residues 1-136, tag omitted): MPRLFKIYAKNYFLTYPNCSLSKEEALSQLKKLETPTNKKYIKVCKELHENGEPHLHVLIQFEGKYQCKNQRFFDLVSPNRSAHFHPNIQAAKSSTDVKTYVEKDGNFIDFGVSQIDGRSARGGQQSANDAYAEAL
Protocol: as §1

[10] = tested on: T10, Rep nickase domain of wheat dwarf virus
T10 sequence (protein, residues 1-137, tag omitted): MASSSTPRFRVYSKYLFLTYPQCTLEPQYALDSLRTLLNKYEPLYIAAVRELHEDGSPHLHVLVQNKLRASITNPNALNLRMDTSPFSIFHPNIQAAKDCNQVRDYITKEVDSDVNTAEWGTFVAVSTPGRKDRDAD
Protocol: as §1

Sequence	uncleaved DNA left (log2) [1]	uncleaved DNA left (log2) [2]	uncleaved DNA left (log2) [3]	uncleaved DNA left (log2) [4]	uncleaved DNA left (log2) [5]	uncleaved DNA left (log2) [6]	uncleaved DNA left (log2) [7]	uncleaved DNA left (log2) [8]	uncleaved DNA left (log2) [9]	uncleaved DNA left (log2) [10]
TCACACT	-0.111	-0.0103	-0.775	-2.74	-0.113	-0.791	-0.123	-0.152	0.00217	-0.408
ACTGTAC	0.0897	0.032	-0.0743	-0.173	0.0602	-0.00577	0.226	0.0639	-0.0528	-0.00476
CCCAATG	-0.148	-0.0728	-0.503	-0.596	-0.000271	-0.912	0.0619	-0.0699	-0.034	0.0293
TGGCGGG	0.0849	-0.0976	-0.169	-0.0661	0.0191	-0.303	0.0832	-0.136	-0.141	-0.197
AACACCC	-0.133	-0.111	0.0131	-0.704	-0.162	-0.165	-0.287	-0.0772	-0.144	-0.0174
ACGTGTA	0.0794	-0.00781	-0.238	-0.691	-0.0519	-0.465	-0.298	0.0585	-0.0314	-0.12
GGGCGAC	-0.00424	0.0837	0.547	1.42	-0.0745	1.88	0.109	0.0527	0.0111	0.168
TTGAACG	-0.0437	0.0493	-0.654	-0.564	-0.091	-1	0.156	0.00242	0.0854	-0.0409
CGTCCTA	-0.0246	0.0431	0.0489	-0.281	-0.0684	-0.245	-0.219	-0.0897	0.0636	0.0156
CTCGTCA	-0.0757	-0.00527	0.018	-0.748	0.023	-0.465	-0.111	-0.00672	0.136	0.0279
CTAACGA	-0.0388	0.0648	-0.51	-0.725	0.107	-1.01	0.139	-0.0153	-0.0282	-0.107
TTGGCGC	0.206	0.00414	-0.66	0.0712	0.093	-0.793	0.154	0.0811	0.043	-0.11
TTGGTCA	0.046	0.0591	0.215	-0.0175	0.0043	0.311	0.0716	0.0449	0.14	0.133
TGGGCAT	-0.00773	-0.0993	0.736	1.94	-0.195	2.14	0.0841	-0.11	-0.14	0.0413
AGCGACG	0.092	0.0599	0.149	0.634	0.126	1.71	0.327	0.193	0.0403	0.204
CAGACAA	-0.0348	0.0226	0.192	0.524	-0.0548	0.318	-0.179	-0.0688	-0.0836	0.0514
TGTTGGG	0.0465	-0.0264	-0.639	-0.715	0.0649	-0.769	0.203	0.0869	0.0792	-0.103
GCAACCA	-0.101	0.131	0.0427	-1.11	-0.045	-0.045	-0.64	0.051	0.0393	0.148
CACTTGT	-0.638	-1.06	-0.437	-1.23	0.0614	-0.87	-3.55	-0.177	-0.0586	-0.0956
CCTACTA	0.00903	0.00618	-0.511	-2.65	0.0837	-0.721	-0.131	-0.0137	-0.00227	-0.0221
ATATGTG	0.0776	-0.0564	-0.769	-0.074	-0.00417	-1.03	0.0892	-0.0581	0.0894	-0.117

Sequence	uncleaved DNA left (log2) [1]	uncleaved DNA left (log2) [2]	uncleaved DNA left (log2) [3]	uncleaved DNA left (log2) [4]	uncleaved DNA left (log2) [5]	uncleaved DNA left (log2) [6]	uncleaved DNA left (log2) [7]	uncleaved DNA left (log2) [8]	uncleaved DNA left (log2) [9]	uncleaved DNA left (log2) [10]
GTCCTCC	-0.0912	0.0394	0.316	0.76	-0.0392	1.54	-0.02	0.0326	-0.0724	0.0397
TCTATCA	-0.039	0.099	0.509	0.243	-0.0311	0.812	0.0613	-0.0229	0.124	0.205
GTAGATG	0.136	0.00111	0.228	0.755	-0.0155	0.94	0.0444	0.0271	-0.0903	-0.0538
TGGGACT	-0.0193	0.0399	0.888	2.05	0.0487	2.26	0.223	0.103	0.00362	0.248
ACCGGTT	0.0485	-0.109	0.0349	-0.198	0.0717	-0.239	0.134	0.00509	0.000323	-0.0648
TGAGTGG	0.0556	0.000743	0.144	0.324	0.0394	0.0774	0.106	0.0617	0.147	0.118
ACGCATG	-0.187	0.0143	-0.51	-0.367	-0.182	-1.15	0.0658	-0.0388	0.00765	0.00447
ATGGGTG	0.0687	0.079	-0.213	-0.0704	0.1	-0.445	0.297	0.124	0.119	0.00167
CTTGGTG	0.0494	-0.0597	-0.6	-0.501	0.0491	-0.942	0.0577	-0.0243	0.0548	-0.0578
TCCTTGT	-0.19	-0.0759	-0.123	-0.638	-0.0866	-0.981	-1.11	-0.122	-0.169	-0.135
CCACGAG	0.0956	0.0567	0.0525	0.231	-0.0357	-0.843	0.125	0.036	0.0423	0.145
CGTAGGT	0.0987	0.0158	0.414	0.74	0.0246	0.902	0.0547	0.0124	0.0244	0.0393
AGTGTCG	-0.193	-0.174	-0.795	-0.587	0.03	-0.907	-0.0427	-0.163	-0.0812	-0.14
TCCGCAC	-0.19	-0.107	-0.0283	-0.401	-0.106	-0.599	-0.0147	-0.154	-0.179	-0.187
AGCAGGA	0.0129	0.0623	0.237	0.582	-0.00731	0.475	0.0807	0.0918	-0.00575	0.0436
GGGTTCT	-0.177	-0.0114	0.639	1.59	-0.201	2.04	-0.734	-0.156	-0.0167	-0.0525
GTTATTC	-0.0415	0.141	0.304	0.891	0.0315	1.54	0.201	0.0308	0.149	0.1
TTGCTAC	-0.403	0.0692	-0.368	-1.45	0.0859	-1.01	-0.445	-0.0311	0.0275	-0.0317
AGGCGTA	0.0589	0.00639	-0.168	-0.39	0.023	-0.616	0.184	0.171	0.0998	0.00195
CACAAAC	0.111	-0.057	0.00568	-0.544	0.165	-0.751	0.19	0.0583	-0.000788	0.156
CAAATCC	0.0224	0.143	-0.133	-0.517	-0.0389	-0.601	0.00147	-0.00323	0.0293	0.046

Sequence	uncleaved DNA left (log2) [1]	uncleaved DNA left (log2) [2]	uncleaved DNA left (log2) [3]	uncleaved DNA left (log2) [4]	uncleaved DNA left (log2) [5]	uncleaved DNA left (log2) [6]	uncleaved DNA left (log2) [7]	uncleaved DNA left (log2) [8]	uncleaved DNA left (log2) [9]	uncleaved DNA left (log2) [10]
AAACAAG	-0.126	0.0375	-0.89	-0.448	-0.0325	-1.1	0.163	-0.0622	0.0196	-0.188
TCGTATC	0.0358	-0.0282	0.233	0.0852	-0.0691	-0.297	-0.209	-0.0649	0.0749	0.0958
TACAAAC	-0.0676	0.0289	-0.0494	-0.572	0.0589	-0.707	0.117	0.0302	0.0417	0.0139
ACATGCG	-0.0852	-0.0605	0.446	1.79	-0.0271	2.13	0.0493	-0.1	-0.0209	0.0213
GGTGTGG	0.0587	-0.0724	0.179	0.464	-0.0447	0.339	-0.00475	-0.114	-0.061	-0.115
CATCAAG	0.132	0.0675	-0.724	-0.291	0.0313	-1.04	0.198	0.0619	-0.0661	-0.0701
ACAGGTC	-0.07	-0.0537	-0.19	-0.0384	0.0585	-0.724	0.113	0.0222	-0.155	-0.0563
TAGTGTT	-3.38	-3.68	-3.76	-3.1	-3.7	-2.27	-4.2	-2.83	-0.157	-3
CGGTGTT	-2.32	-0.512	-0.361	-1.2	-0.837	0.319	-2.91	-0.299	0.0148	-0.488
TCATACG	-0.0743	-0.0124	-0.95	-0.682	-0.00299	-1.18	0.0189	-0.0176	-0.112	-0.234
CTCAGCC	0.0192	-0.008	-0.0759	-0.472	-0.0648	-0.957	-0.0349	-0.0666	-0.0397	-0.0244
GTAGCTC	-0.131	-0.0654	0.345	0.696	-0.0761	1.34	-0.00185	0.00438	-0.0114	-0.0279
CACCGGA	0.0149	0.0962	0.0368	0.362	0.0523	-0.00741	0.0738	0.0528	0.0912	0.0243
CATGAAG	0.0904	-0.1	-0.648	0.582	0.0508	-0.275	0.178	-0.013	0.0458	-0.0998
CTACCGG	-0.183	-0.046	0.327	0.973	-0.0618	1.39	-0.116	-0.0542	-0.108	0.00468
GCCGGAA	0.0839	-0.0392	0.354	0.827	0.0313	0.684	0.104	-0.0126	-0.0951	-0.0165
CGCCAAC	-0.0304	0.0661	-0.0202	-0.693	0.0572	-0.311	0.0485	-0.0623	-0.00774	0.0646
TGTCACC	0.0256	0.162	0.333	0.492	0.0133	0.977	0.000128	0.139	0.107	0.148
AGACTTA	0.00258	0.0877	0.51	0.657	0.0592	1.42	-0.0541	-0.0264	0.0753	0.0671
CCCTCGA	0.0383	-0.00936	-0.494	-0.82	0.0521	-1.13	-0.0865	-0.0394	-0.127	-0.128

Source: the supplement of paper PMC7826260
